This note sets out measurements from the antibiotic and cytotoxicity screens of Wong et al. (2023).

Some of the results follow.

The assay has as its system HSkMC (human skeletal muscle cells). The assay is described as follows: cytotoxicity call (relative viability < 0.9). Particulars: 10 µM.
`COc1cccc(S(=O)(=O)N(C)C[C@H]2Oc3ncc(C#CC(C)C)cc3C(=O)N([C@H](C)CO)C[C@@H]2C)c1`: the cytotoxicity call was “inactive”. Next, `C[C@@H]1CN([C@@H](C)CO)C(=O)c2cc(NS(=O)(=O)c3ccc(F)cc3)ccc2O[C@@H](C)CCCCO[C@@H]1CN(C)C(=O)CCC(F)(F)F`: “inactive”; `CC(C)NC(=O)Nc1ccc2c(c1)CC(=O)N([C@@H](C)CO)C[C@H](C)[C@@H](CN(C)S(=O)(=O)c1cn(C)cn1)O2`: “inactive”; `C[C@@H]1CN([C@@H](C)CO)C(=O)c2cccc(NS(=O)(=O)c3ccc(F)cc3)c2O[C@H]1CN(C)Cc1ccc(Cl)c(Cl)c1`: “inactive”.

For the compound `C[C@@H]1CN([C@@H](C)CO)C(=O)c2cccc(NC(=O)C3CCOCC3)c2O[C@H]1CN(C)Cc1ccc(-c2ccccc2)cc1`, the cytotoxicity call is “inactive”. Regarding `COC(=O)/C=C/c1ccc(C(=O)NCC(=O)N[C@@H](CCC(=O)OC)C(=O)N[C@@H](CC(C)C)C(N)=O)cc1`, the cytotoxicity call is “inactive”. As for `CO[C@H]1CN(C)C(=O)c2cc(NS(=O)(=O)c3cn(C)cn3)ccc2OC[C@H](C)N(Cc2cccc(F)c2)C[C@H]1C`, the entry is “inactive”. Next, `CCCNC(=O)N[C@@H]1CC[C@H](CC(=O)N2CCN(C)CC2)O[C@H]1CO`: “inactive”; `Cn1cnc(S(=O)(=O)N2C[C@@H](O)COC[C@H]3O[C@@H](CC(=O)NCc4cccc(F)c4)CC[C@@H]32)c1`: “inactive”; `CN(C)CCCN1c2ccccc2Sc2ccc(Cl)cc21.Cl`: “inactive”.

For the compound `COCC(=O)N1CC[C@@H](O)[C@@H]1Cc1cnn(C)c1`, the cytotoxicity call is “inactive”.

Consider `CO[C@H](CN(C)S(=O)(=O)c1ccc(F)cc1)[C@H](C)CN([C@@H](C)CO)S(=O)(=O)c1cccc(Cl)c1`, for which the cytotoxicity call was “inactive”. Take `C[C@H](CO)N1C[C@H](C)[C@H](CN(C)S(=O)(=O)c2cn(C)cn2)Oc2cc(C#Cc3ccc(F)cc3)ccc2S1(=O)=O`: the cytotoxicity call was “inactive”. Turning to `C[C@H]1CCCCO[C@H](CN(C)Cc2ccccc2)[C@@H](C)CN([C@@H](C)CO)C(=O)c2cc(NC(=O)C3CCCCC3)ccc2O1`, the cytotoxicity call was “inactive”.

For `Cc1ccc(S(=O)(=O)N(C)C[C@@H]2Oc3cc(C#Cc4ccncc4)ccc3S(=O)(=O)N([C@@H](C)CO)C[C@H]2C)cc1`, the cytotoxicity call is “inactive”. As for `COc1ccc(NC(=O)Nc2ccc3c(c2)C(=O)N([C@H](C)CO)C[C@H](C)[C@@H](CN(C)CC2CC2)OCCCC[C@H](C)O3)cc1`, the entry is “inactive”.

On to `NC1(C(=O)O)CCCC1`, for which the cytotoxicity call is “inactive”. Next, `C[C@@H]1CN([C@H](C)CO)C(=O)c2cccc(NS(C)(=O)=O)c2O[C@@H]1CN(C)C(=O)Nc1ccc(F)cc1`: “inactive”; `CC(C)NC(=O)N(C)C[C@@H]1Oc2ccc(NC(=O)C3CCCCC3)cc2CC(=O)N([C@@H](C)CO)C[C@H]1C`: “inactive”. Regarding `Cc1noc(C)c1NC(=O)Nc1cccc2c1O[C@@H](CN(C)Cc1ccc(Cl)c(Cl)c1)[C@H](C)CN([C@@H](C)CO)C2=O`, the cytotoxicity call is “inactive”. As to `CCOc1nc2cccc(C(=O)O)c2n1Cc1ccc(-c2ccccc2-c2nnn[nH]2)cc1`, the cytotoxicity call was “inactive”. Next, `C=CC[C@H](CC(=O)N(CCO)Cc1ccccc1)C(=O)NC[C@H](OC(=O)[C@@H](CC=C)Cc1ccc(F)cc1)c1ccccc1`: “active”. As for `C[C@@H]1CCCCO[C@H](CN(C)C(=O)Cc2ccccc2)[C@@H](C)CN([C@@H](C)CO)C(=O)c2cc(NS(=O)(=O)c3ccc(F)cc3)ccc2O1`, the entry is “inactive”. Turning to `CN1CCN(C(=O)C[C@@H]2CC[C@H]3[C@@H](COC[C@H](O)CN3Cc3ccc(Oc4ccccc4)cc3)O2)CC1`, the cytotoxicity call was “inactive”.

As to `C[C@@H]1CN([C@H](C)CO)C(=O)c2cc(NC(=O)Nc3ccc(F)cc3)ccc2O[C@@H](C)CCCCO[C@H]1CN(C)S(=O)(=O)c1ccc(Cl)cc1`, the cytotoxicity call is “inactive”. `COc1ccc(NC(=O)Nc2ccc3c(c2)C(=O)N([C@@H](C)CO)C[C@H](C)[C@@H](CN(C)Cc2ccc4c(c2)OCO4)OCCCC[C@@H](C)O3)cc1`: the cytotoxicity call is “inactive”. As for `COC(=O)[C@H](Cc1ccccc1)N1CC2=C[C@@H](C3CC3)n3c(=O)n(C)c(=O)n3[C@H]2[C@@H]1[C@@H](O)CCn1cc(-c2cccc(/C=C/C(=O)NO)c2)nn1`, the entry is “inactive”; as for `C[C@@H]1CN([C@@H](C)CO)C(=O)c2cccc(NC(=O)Nc3ccc(C(F)(F)F)cc3)c2O[C@@H]1CN(C)Cc1ccc(C(=O)Nc2ccccc2N)cc1`, “inactive”; as for `Cc1noc(C)c1NC(=O)N(C)C[C@H]1Oc2ncc(C#CCC(C)C)cc2C(=O)N([C@@H](C)CO)C[C@@H]1C`, “inactive”.
